# Measured values: ChEMBL document CHEMBL5303300, “EUbOPEN Chemogenomics Library - Multiplex” (2023)
# Certain results were filed several times, with different values. This is not the full list of results. There may be further records. Results that share an entry repeat one measurement across runs, samples, wells, individuals or studies.
# Test system: U2OS
# Assay: Multiplex assay against U2OS
# Assay type: toxicity, cell-based
# Conditions: human, number of replicates 2
# In short: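 Per cents of healthy-nucleus cells form the tubulin, mitochondrial-mass and membrane-permeability phenotype values. Live cells were stained at seeding with Hoechst33342, BioTracker Green Microtubule Cytoskeleton Dye, MitoTracker Red and Annexin V Alexa Fluor 680. After compound addition they were imaged on a CQ1 microscope at 37°C and 5% CO2, and CellPathfinder machine-learning gating split them into Hoechst high-intensity objects or normal cells, normal cells into healthy, pyknosed or fragmented nuclei, and pyknosed cells into mitotic or apoptotic.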
# [1] = 12 h, 1 µM, compound concentration 1 uM
# [2] = 24 h, 1 µM, compound concentration 1 uM
# [3] = 48 h, 1 µM, compound concentration 1 uM
# [4] = 48 h, 10 µM, compound concentration 10 uM
# [5] = 12 h, 10 µM, compound concentration 10 uM
# [6] = 24 h, 10 µM, compound concentration 10 uM
structure (smiles),measurement,setting,value
Cc1cn(CCN2CCN(c3ccccc3-c3cc(C#N)cc(C(=O)NCCCN4CCCC4)c3)CC2)c2ccccc12,Population Fragmented Nuclei (%),[1],16% and 4%
same,Total Cell Count,[1],49 and 199
same,Population Fragmented Nuclei (%),[2],20% and 1%
same,Total Cell Count,[2],62 and 256
same,Population Fragmented Nuclei (%),[3],17% and 4%
same,Population Membrane Permeable-Phenotype (%),[3],15% and 4%
same,Total Cell Count,[3],75 and 411
same,Population Healthy Nuclei (%),[4],44% and 8%
CNc1ncc2cc(-c3ccc(-c4cccc(C)n4)cc3Cl)c(=O)n(C[C@H]3OC[C@H](N)CO3)c2n1,Population Fragmented Nuclei (%),[1],47% and 3%
same,Population Membrane Permeable-Phenotype (%),[1],21% and 1%
same,Total Cell Count,[1],42 and 165
same,Population Mitochondria Different-Phenotype (%),[5],35% and 10%
same,Total Cell Count,[5],74 and 290
same,Population Fragmented Nuclei (%),[2],33% and 8%
same,Population Membrane Permeable-Phenotype (%),[2],16% and 2%
same,Total Cell Count,[2],42 and 210
same,Population Membrane Permeable-Phenotype (%),[6],14% and 2%
same,Total Cell Count,[6],72 and 331
same,Population Fragmented Nuclei (%),[3],29% and 6%
same,Total Cell Count,[3],75 and 416
same,Population Healthy Nuclei (%),[4],13% and 48%
same,Population Membrane Permeable-Phenotype (%),[4],55% and 4%
same,Population Mitochondria Different-Phenotype (%),[4],44% and 9%
same,Total Cell Count,[4],72 and 427
CNS(=O)(=O)c1ccc(N(C)C)c(Nc2ncnc3cc(OC)c(OC)cc23)c1,Population Fragmented Nuclei (%),[1],15% and 3%
same,Population Mitotic Cells (%),[1],0% and 38%
same,Total Cell Count,[1],26 and 216
same,Population Fragmented Nuclei (%),[5],35% and 2%
same,Population Fragmented Nuclei (%),[2],23% and 2%
same,Total Cell Count,[2],30 and 308
same,Population Fragmented Nuclei (%),[6],20% and 2%
same,Total Cell Count,[6],59 and 224
same,Population Fragmented Nuclei (%),[3],20% and 3%
same,Total Cell Count,[3],59 and 706
same,Population Fragmented Nuclei (%),[4],35% and 7%
same,Total Cell Count,[4],102 and 327
O=C1NC(=NCc2cccs2)SC1=Cc1ccc2ncccc2c1,Population Fragmented Nuclei (%),[1],21% and 3%
same,Population Mitotic Cells (%),[1],0% and 40%
same,Total Cell Count,[1],32 and 151
same,Population Fragmented Nuclei (%),[5],21% and 6%
same,Total Cell Count,[5],33 and 194
same,Population Pyknosed Nuclei (%),[2],21% and 6%
same,Total Cell Count,[2],51 and 203
same,Population Fragmented Nuclei (%),[6],17% and 5%
same,Total Cell Count,[6],41 and 209
same,Population Fragmented Nuclei (%),[3],22% and 4%
same,Population Mitotic Cells (%),[3],7% and 26%
same,Population Pyknosed Nuclei (%),[3],19% and 6%
same,Total Cell Count,[3],71 and 437
same,Population Mitochondria Different-Phenotype (%),[4],26% and 1%
same,Total Cell Count,[4],42 and 220
CN1CCc2cc(Nc3ncc(C(F)(F)F)c(NCc4cc[nH]n4)n3)ccc2C1,Population Apoptotic (%),[1],0% and 87%
same,Population Fragmented Nuclei (%),[1],100% and 13%
same,Population Healthy Nuclei (%),[1],0% and 60%
same,Population Pyknosed Nuclei (%),[1],0% and 26%
same,Population Tubulin-Different-Phenotype (%),[1],0% and 90%
same,Total Cell Count,[1],4 and 153
same,Population Apoptotic (%),[5],0% and 72%
same,Population Fragmented Nuclei (%),[5],50% and 15%
same,Population Mitotic Cells (%),[5],100% and 28%
same,Total Cell Count,[5],24 and 183
same,Population Apoptotic (%),[2],0% and 91%
same,Population Fragmented Nuclei (%),[2],100% and 16%
same,Population Healthy Nuclei (%),[2],0% and 34%
same,Population Pyknosed Nuclei (%),[2],0% and 48%
same,Population Tubulin-Different-Phenotype (%),[2],0% and 81%
same,Total Cell Count,[2],3 and 179
same,Population Fragmented Nuclei (%),[6],62% and 12%
same,Total Cell Count,[6],32 and 184
same,Population Apoptotic (%),[3],0% and 99%
same,Population Fragmented Nuclei (%),[3],100% and 15%
same,Population Membrane Permeable-Phenotype (%),[3],0% and 33%
same,Population Pyknosed Nuclei (%),[3],0% and 63%
same,Population Tubulin-Different-Phenotype (%),[3],0% and 91%
same,Total Cell Count,[3],2 and 168
same,Population Fragmented Nuclei (%),[4],14% and 60%
same,Population Membrane Permeable-Phenotype (%),[4],12% and 50%
same,Population Mitochondria Different-Phenotype (%),[4],12% and 66%
same,Total Cell Count,[4],189 and 38
